Measured values from patent US20110020312A1, “METHODS FOR TREATMENT OF METABOLIC DISORDERS USING EPIMETABOLIC SHIFTERS, MULTIDIMENSIONAL INTRACELLULAR MOLECULES, OR ENVIRONMENTAL INFLUENCERS” (priority 2009, published 2011).

Key:
SK-MEL-28 cells [1] = experiment: Real-time PCR Oxidative Stress and Antioxidant Defense Array; format: cell-based; conditions: for MBL2 mRNA level change / NCF1 mRNA level change / NCF2 mRNA level change / NME5 mRNA level change / PRDX5 mRNA level change / PREX1 mRNA level change / PRNP mRNA level change / PTGS2 mRNA level change / RPL13A mRNA level change / SGK2 mRNA level change / SIRT2 mRNA level change / APOE mRNA level change / BNIP3 mRNA level change / CAT mRNA level change / CCS mRNA level change / CYBA mRNA level change / DUSP1 mRNA level change / FOXM1 mRNA level change: SKMEL-28, 100 μM
Protocol: The resulting solution was warmed in a 65° C. water bath and vortexed at high speed. […] For the control vehicle, 9.5 mL of media was added to 500 μL of isopropanol. The control stock was further diluted (2 mL of stock) with 8 mL of media. […] Experimental details: […] (SABiosciences, Frederick, Md.). […] Further experiments were carried out using SKMEL-28 cells. […] The PCR array (SABiosciences) is a set of optimized real-time PCR primer assays on 96-well plates for pathway or disease focused genes as well as appropriate RNA quality controls. The PCR array performs gene expression analysis with real-time PCR sensitivity and the multi-gene profiling capability of a microarray.

SK-MEL-28 cells [2] = experiment: Real-time PCR Apoptosis Array; format: cell-based
Protocol: The formulation of the Q10 was as follows. […] The resulting solution was warmed in a 65° C. water bath and vortexed at high speed. […] For the control vehicle, 9.5 mL of media was added to 500 μL of isopropanol. The control stock was further diluted (2 mL of stock) with 8 mL of media.
RNA was quantified by measuring Optical Density at 260 nm.
(SABiosciences, Frederick, Md.).
A vehicle was prepared in parallel with a similar protocol except that the Coenzyme Q10 was not added.

COC1=C(OC)C(=O)C(C/C=C(\C)CC/C=C(\C)CC/C=C(\C)CC/C=C(\C)CC/C=C(\C)CC/C=C(\C)CC/C=C(\C)CC/C=C(\C)CC/C=C(\C)CCC=C(C)C)=C(C)C1=O [Q10, Coenzyme Q10]
MBL2 mRNA level change (SK-MEL-28 cells [1]; 16 hr): −1.9072
NCF1 mRNA level change (SK-MEL-28 cells [1]; 16 hr): high
NCF2 mRNA level change (SK-MEL-28 cells [1]; 16 hr): 3.0077
NME5 mRNA level change (SK-MEL-28 cells [1]; 16 hr): 3.1138
PRDX5 mRNA level change (SK-MEL-28 cells [1]; 16 hr): 3.0454
PREX1 mRNA level change (SK-MEL-28 cells [1]; 16 hr): 2.867
PRNP mRNA level change (SK-MEL-28 cells [1]; 16 hr): 3.5236
PTGS2 mRNA level change (SK-MEL-28 cells [1]; 16 hr): 2.7046
RPL13A mRNA level change (SK-MEL-28 cells [1]; 16 hr): 3.1857
SGK2 mRNA level change (SK-MEL-28 cells [1]; 16 hr): 0
SIRT2 mRNA level change (SK-MEL-28 cells [1]; 16 hr): 4.0829
APOE mRNA level change (SK-MEL-28 cells [1]; 24 hr): −0.9543
BNIP3 mRNA level change (SK-MEL-28 cells [1]; 24 hr): 4.312
CAT mRNA level change (SK-MEL-28 cells [1]; 24 hr): 0.1046
CCS mRNA level change (SK-MEL-28 cells [1]; 24 hr): 3.452
CYBA mRNA level change (SK-MEL-28 cells [1]; 24 hr): 3.9208
DUSP1 mRNA level change (SK-MEL-28 cells [1]; 24 hr): 2.7713
FOXM1 mRNA level change (SK-MEL-28 cells [1]; 24 hr): −0.9216
MBL2 mRNA level change (SK-MEL-28 cells [1]; 24 hr): −3.0142
NCF1 mRNA level change (SK-MEL-28 cells [1]; 24 hr): 3.3829
NCF2 mRNA level change (SK-MEL-28 cells [1]; 24 hr): 0.0954
NME5 mRNA level change (SK-MEL-28 cells [1]; 24 hr): 3.3694
PRDX5 mRNA level change (SK-MEL-28 cells [1]; 24 hr): 3.5381
PREX1 mRNA level change (SK-MEL-28 cells [1]; 24 hr): 0.3222
PRNP mRNA level change (SK-MEL-28 cells [1]; 24 hr): 2.9086
PTGS2 mRNA level change (SK-MEL-28 cells [1]; 24 hr): 2.6552
RPL13A mRNA level change (SK-MEL-28 cells [1]; 24 hr): 2.5492
SGK2 mRNA level change (SK-MEL-28 cells [1]; 24 hr): 0
SIRT2 mRNA level change (SK-MEL-28 cells [1]; 24 hr): 4.4766
APOE mRNA level change (SK-MEL-28 cells [1]; 48 hr): 3.7694
BNIP3 mRNA level change (SK-MEL-28 cells [1]; 48 hr): −18.2069
CAT mRNA level change (SK-MEL-28 cells [1]; 48 hr): 3.8557
CCS mRNA level change (SK-MEL-28 cells [1]; 48 hr): 2.9801
CYBA mRNA level change (SK-MEL-28 cells [1]; 48 hr): 6.2452
DUSP1 mRNA level change (SK-MEL-28 cells [1]; 48 hr): 3.321
FOXM1 mRNA level change (SK-MEL-28 cells [1]; 48 hr): 3.3655
MBL2 mRNA level change (SK-MEL-28 cells [1]; 48 hr): −1.1854
NCF1 mRNA level change (SK-MEL-28 cells [1]; 48 hr): 15.7838
NCF2 mRNA level change (SK-MEL-28 cells [1]; 48 hr): 5.476
NME5 mRNA level change (SK-MEL-28 cells [1]; 48 hr): 3.1549
PRDX5 mRNA level change (SK-MEL-28 cells [1]; 48 hr): 4.7955
PREX1 mRNA level change (SK-MEL-28 cells [1]; 48 hr): 6.3719
PRNP mRNA level change (SK-MEL-28 cells [1]; 48 hr): 5.0837
PTGS2 mRNA level change (SK-MEL-28 cells [1]; 48 hr): 4.0553
RPL13A mRNA level change (SK-MEL-28 cells [1]; 48 hr): 4.9253
SGK2 mRNA level change (SK-MEL-28 cells [1]; 48 hr): 0.5995
SIRT2 mRNA level change (SK-MEL-28 cells [1]; 48 hr): 5.7166
APOE mRNA level change (SK-MEL-28 cells [1]; 72 hr): 5.3315
BNIP3 mRNA level change (SK-MEL-28 cells [1]; 72 hr): −4.8424
CAT mRNA level change (SK-MEL-28 cells [1]; 72 hr): 5.3988
CCS mRNA level change (SK-MEL-28 cells [1]; 72 hr): 6.1539
CYBA mRNA level change (SK-MEL-28 cells [1]; 72 hr): 5.0762
DUSP1 mRNA level change (SK-MEL-28 cells [1]; 72 hr): 5.5375
FOXM1 mRNA level change (SK-MEL-28 cells [1]; 72 hr): −10.0953
MBL2 mRNA level change (SK-MEL-28 cells [1]; 72 hr): −6.4544
NCF1 mRNA level change (SK-MEL-28 cells [1]; 72 hr): 31.5369
NCF2 mRNA level change (SK-MEL-28 cells [1]; 72 hr): 0
NME5 mRNA level change (SK-MEL-28 cells [1]; 72 hr): 5.782
PRDX5 mRNA level change (SK-MEL-28 cells [1]; 72 hr): 6.0169
PREX1 mRNA level change (SK-MEL-28 cells [1]; 72 hr): 7.476
PRNP mRNA level change (SK-MEL-28 cells [1]; 72 hr): −3.9396
PTGS2 mRNA level change (SK-MEL-28 cells [1]; 72 hr): −3.3022
RPL13A mRNA level change (SK-MEL-28 cells [1]; 72 hr): 7.82
SGK2 mRNA level change (SK-MEL-28 cells [1]; 72 hr): 5.937
SIRT2 mRNA level change (SK-MEL-28 cells [1]; 72 hr): 6.6257
Nitric oxide synthase 2A (NOS2A) mRNA (SK-MEL-28 cells [1]; early): second major early induced protein
Neutrophil cytosolic factor 2 (NCF2) mRNA (SK-MEL-28 cells [1]; observed at 6 hours): one of the initial top induced mRNA's
tumor protein p73 mRNA (SK-MEL-28 cells [2]; 100 μM Q10): strong down regulation
Caspase-9 mRNA (SK-MEL-28 cells [2]; 16 hour): upregulation
